Reference: PubChem BioAssay AID686978 (National Center for Advancing Translational Sciences (NCATS), 2013)
Among all 420,000 compounds or so, about 64,000 (15%) were called active. Inconclusive results, whose numbers are uncertain, are shown with a selection of clear calls. Calls follow the shape of the dose curve; as a rule, active = well fitted inhibition curve with a large enough effect; inconclusive = small, poorly fitted or top-dose-only effect; inactive = flat fitted curve, though single readings scatter. No potency is given beside an inconclusive call; the fits are too rough.

Experiment: qHTS for Inhibitors of human tyrosyl-DNA phosphodiesterase 1 (TDP1): qHTS in cells in absence of CPT; also: nearly all actives have a fitted effect of over 55% in size
Settings: DT40 Tdp1-/- hTDP1 cells, no CPT, ATP luminescence, 48 h; activity change, negative = growth inhibition: at 46.2 µM (top of the series) unless noted
How it was run: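 No-CPT arm: Tdp1-/-;hTDP1 DT40 cells (400/well) plus compounds, incubated ≥48 hr at 37 °C. Readout CellTiter-Glo luminescence.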
% is scaled to controls: 0 for no effect and ±100 for the full control effect; potency is read from the fitted curve at half-maximal effect; tags tell the direction and shape of the fitted curve.

| SMILES | Potency | activity change, negative = growth inhibition |
| --- | --- | --- |
| NC(=O)c1nsc(C(=O)N(CC(=O)NCc2ccco2)c2ccccc2F)c1N | inconclusive [inhibitor, single point] | – |
| CSCCC(NS(=O)(=O)c1ccc(C)cc1)C(=O)N1CC=C(c2ccccc2)CC1 (centres undefined) | inconclusive [inhibitor, partial curve] | – |
| Cc1ccc(OCc2nnc(N)s2)cc1C | inactive | – |
| Cc1cc(CNCc2cn(C)nc2-c2ccc(Oc3ccccc3)cc2)on1 | inconclusive [inhibitor, single point] | – |
| C=CCn1c(O)c(N=Nc2ccccc2[N+](=O)[O-])c2ccccc21 | inconclusive [inhibitor, single point] | – |
| Cc1[nH]n(-c2cccc(Cl)c2)c(=O)c1/C=N/n1c(C)nc2ccccc2c1=O | inconclusive [inhibitor, single point] | – |
| O=C(O)c1ccc(N2C(=O)/C(=C/C=C/c3ccccc3)SC2=S)cc1 | inactive | – |
| COc1ccc(NC(=O)c2cc(S(=O)(=O)N(C)C)ccc2N2CCCC2)cc1Cl | – | inconclusive: -35.7% [inhibitor] |
| Cc1ccc(S(=O)(=O)N(CC(=O)N2CCC(C)CC2)c2ccccc2)cc1 | – | inconclusive: -45.8% [inhibitor] |
| O=C(NCCCN1CCOCC1)c1ccc(Sc2ccccc2Cl)c([N+](=O)[O-])c1 | inconclusive [inhibitor, single point] | – |
| COc1cccc(NC(=O)CN(C)C(=O)c2cn(-c3ccccc3)nc2-c2cccnc2)c1 | inconclusive [inhibitor, single point] | – |
| CC(=O)Nc1ccc(NC(=O)Nc2cccc(Cl)c2)cc1 | inactive | – |
| Cc1cc(C)cc(NC(=O)Cn2c(-c3ccccc3Cl)nc3ccccc32)c1 | inactive | – |
| O=C(C1CCCCC1)N1CCCC(c2nc(-c3ccc(F)cc3)no2)C1 (centres undefined) | inconclusive [inhibitor, single point] | – |
| CCC(=NCCc1c(C)[nH]c2ccccc12)C1=C(O)CC(c2ccccc2)CC1=O (centres undefined) | active: 2.91 µM | – |
| c1ccc2[nH]c(CN3CCN(c4ncnc5c4oc4ccccc45)CC3)nc2c1 | active: 23.1 µM | – |
| N#Cc1c(NC(=O)CSc2nnnn2C2CCCC2)sc2c1CCCC2 | inconclusive [inhibitor, single point] | – |
| CCn1c(=O)cc(SCC(=O)N2CCN(c3ccccn3)CC2)c2ccccc21 | inconclusive [inhibitor, single point] | – |
| Cc1ccc(/C=C/C(=O)N2CCc3ccccc32)o1 | active: 13 µM | – |
| CCCc1c(C)nc(N2CCN(c3cccc(OC)c3)CC2)[nH]c1=O | inconclusive [inhibitor, single point] | – |
| CCNc1ccc(/C=C/c2ccnc3ccccc23)cc1 | active: 3.98 µM | – |
| CCCCOC(=O)c1ccc(NC(=O)C2(c3cccs3)CCOCC2)cc1 | inconclusive [inhibitor, single point] | – |

| SMILES | Potency | activity change, negative = growth inhibition |
| --- | --- | --- |
| C/C(=N\NC(=O)c1cccc(S(=O)(=O)N2CCOCC2)c1)c1cc2ccccc2o1 | inconclusive [inhibitor, single point] | – |
| O=C(Nc1ccc2c(c1)OCCO2)c1cccnc1Oc1ccccc1 | inconclusive [inhibitor, partial curve] | – |
| Cc1cc(Cl)ccc1Oc1ncc(-c2ccc(Cl)cc2)cn1 | inconclusive [inhibitor, single point] | – |
| O=C1c2ccccc2C(=O)N1CCCCCCN1C(=O)c2ccccc2C1=O | inconclusive [inhibitor, single point] | – |
| O=C(c1cn(-c2ccccc2)nc1-c1cccnc1)N1CCN(S(=O)(=O)c2ccc(Cl)cc2)CC1 | inconclusive [inhibitor, single point] | – |
| CC(C)(C)C(=O)Nc1scc(-c2ccc(-c3ccccc3)cc2)c1C(=O)O | inconclusive [inhibitor, single point] | – |
| CC(=O)c1sc(NC(=O)CS(=O)(=O)c2ccccc2)nc1-c1ccccc1 | inconclusive [inhibitor, single point] | – |
| COc1ccccc1C=NNc1ccc([N+](=O)[O-])cn1 | inactive | – |
| CCOc1ccccc1N(C)C(=O)c1sc2nc3n(c(=O)c2c1C)CCCC3 | inconclusive [inhibitor, single point] | – |
| CS(=O)(=O)Nc1cccc(NC(=O)C2Cc3c(-c4cccc(C(N)=O)c4)ccnc3O2)c1 (centres undefined) | inactive | – |
| CCCn1c(=O)c(C(=O)N/N=C/c2ccccc2F)c(O)c2ccccc21 | inactive | – |
| COc1ccc(-c2cn3nc(N4CCCC(C(=O)Nc5ccccc5F)C4)sc3n2)cc1 (centres undefined) | active: 14.6 µM | – |
| COc1ccc(NC(=O)C(C)SCc2ccccc2)cc1 (centres undefined) | inconclusive [inhibitor, partial curve] | – |
| COc1ccc(NC(=O)CSc2nccn2C2CCCC2)cc1OC | inconclusive [inhibitor, single point] | – |
| Cc1cc(Nc2ncc(Cl)cc2Cl)n(-c2ccccc2)n1 | inconclusive [inhibitor, single point] | – |
| Cc1nn(CC(=O)Nc2ccc(C(C)C)cc2)c(=O)c2c(C)n(-c3ccc(Cl)cc3)nc12 | inconclusive [inhibitor, single point] | – |
| Cc1[nH]n(C(N)=S)c(=O)c1N=Nc1ccc2ccccc2c1 | inconclusive [inhibitor, single point] | – |
| CCc1noc(C)c1C(=O)Nc1sc(C(=O)N(C)C)c(C)c1C(=O)OC | inconclusive [inhibitor, single point] | – |
| O=C(Nc1ccccc1OC(F)F)c1oc2ccccc2c1COc1ccccc1 | inactive | – |
| CC1CCCN(S(=O)(=O)c2cccc([N+](=O)[O-])c2)C1 (centres undefined) | inconclusive [inhibitor, single point] | – |
| O=C(O)c1ccc(CSC2CCCCC2)cc1 | – | inconclusive: -24% [inhibitor] |
| O=C(NCCn1c(C(F)(F)F)nc2cc(C(F)(F)F)ccc21)[C@H]1CCCN1c1nc(CN2CCCCC2)cs1 | inconclusive [inhibitor, partial curve, poor fit] | – |
